Measured values: US20240301031A1 (JIANGSU HENGRUI PHARMACEUTICALS, published 2024)

T1: human APRIL (5860-AP-010/CF, R&D Systems) (human, UniProt O75888 115-250, limits assumed)
T1 sequence (looked up): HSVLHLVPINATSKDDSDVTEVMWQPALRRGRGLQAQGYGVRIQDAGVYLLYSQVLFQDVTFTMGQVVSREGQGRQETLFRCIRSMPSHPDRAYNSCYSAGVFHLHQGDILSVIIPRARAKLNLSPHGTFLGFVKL


Key:
[1] = molecular target: BAFF (R&D Systems, 7537-BF) (UniProt Q9Y275 part only); assay: cell-based or functional assay
[2] = molecular target: T1, human APRIL (5860-AP-010/CF, R&D …); assay: cell-based or functional assay
[3] = molecular target: T2, human BAFF (10056-HNCH, Sino biological) (human, UniProt Q9Y275 part only); assay: competition ELISA: biotin-labeled BAFF to coated BAFF-R
T2 construct: Bought protein
Method: The blocking activity of the antibodies and the fusion proteins for receptors and ligands such as BAFF/BAFF-R, BAFF/BCMA, BAFF/TACI, APRIL/BCMA, APRIL/TACI, and p40/IL-12R1 was assayed by the ELISA method. The specific procedures were as follows:
A receptor protein was diluted to 2 μg/mL with PBS at pH 7.4 (BasalMedia, B320) and added to a 96-well microplate (Corning, 3590) at 100 μL/well. The plate was incubated at 4° C. overnight. After the liquid was discarded, 200 μL of 1% Casein blocking solution (Thermo, 37528) was added to each well for blocking, and the plate was incubated at 37° C. for 2 h. After the blocking was completed, the blocking solution was discarded, and the plate was washed 3 times with a PBST buffer (PBS at pH 7.4 containing 0.1% tween-20) for later use. A biotin-labeled ligand protein at a fixed concentration was mixed with the antibody or fusion protein diluted in gradient, pre-incubated at 37° C. for 30 min, and added to a blocked microplate. The plate was incubated at 37° C. for 1.5 h. After the incubation was completed, the plate was washed 3 times with PBST. 100 μL of streptavidin-HRP (Invitrogen, 434323, diluted at a ratio of 1:4000) was added to each well, and the plate was incubated at 37° C. for 1 h. The supernatant was removed, and the plate was washed 3 times with PBST. 100 μL of TMB chromogenic substrate (KPL, 5120-0077) was added to each well, and the plate was incubated at room temperature for 10-15 min. The reaction was stopped by adding 50 μL of 1 M H₂SO₄ to each well. The plate was read for absorbance values at 450 nm on a microplate reader, the curves for the inhibition of the binding of the ligands to the receptors were fitted with software, and the IC₅₀ values were calculated.

[4] = molecular target: T3, BAFF (ACROBiosystems, BAF-H5248) (UniProt Q9Y275 part only); assay: ELISA, fusion protein coated, BAFF titrated, Anti-His-HRP
T3 construct: Bought protein used in the ELISA with coated test sample
Method: The binding activity of the TACI fusion proteins for BAFF and APRIL was assayed by the ELISA method (coating a test fusion protein sample). The specific procedures were as follows:
The test sample was diluted to 2 μg/mL with a PBS (BasalMedia, B320) buffer at pH 7.4 and added to a 96-well microplate (Corning, 3590) at 100 μL/well. The plate was incubated at 4° C. overnight. After the liquid was discarded, 300 μL of 5% skim milk (BD, 232100) diluted with PBS was added to each well for blocking, and the plate was incubated at 37° C. for 2 h. After the blocking was completed, the blocking solution was discarded, and the plate was washed 3 times with a PBST buffer (PBS at pH 7.4 containing 0.1% tween-20). 100 μL of BAFF (ACROBiosystems, BAF-H5248) or APRIL (R&D Systems, 5860-AP-010/CF) diluted in a gradient was added to each well, and the plate was incubated at 37° C. for 1 h. After the incubation, the plate was washed 3 times with PBST. When detecting the binding to BAFF, 100 μL of Anti-His-HRP (Sino biological, 105327-MM02T-H, diluted at a ratio of 1:2000) was added to each well; when detecting the binding to APRIL, 100 μL of anti-HA-HRP (Abcam, ab1190, diluted at a ratio of 1:4000) was added to each well. The plate was incubated at 37° C. for 1 h. The plate was washed 3 times with PBST. 100 μL of TMB chromogenic substrate (KPL, 5120-0077) was added to each well, and the plate was incubated at room temperature for 10-15 min. The reaction was stopped by adding 50 μL of 1 M H₂SO₄ to each well. The plate was read for absorbance values at 450 nm on a microplate reader, the binding curves of the antibodies to an antigen were fitted with software, and the EC₅₀ values were calculated.

Binder | IC50 (nM) for the inhibition of the BAFF-induced B cell proliferation [1] [nM] | IC50 (nM) for the inhibition of the APRIL-induced B cell proliferation [2] [nM] | IC50 [3] [nM] | EC50 [4] [nM]
TACI-9-15Fc2 fusion protein (Fc fusion, Full-length chain) STSCREEQGEFYDHLLRDCISCASICGQHPKQCAAFCEN[omitted - human IgG1 Fc with changes] | 0.054 | 0.231 | 1.35 | 8.8
TACI-9-15Fc1 fusion protein (Fc fusion, Full-length chain of TACI-9-15 or a truncated form, linker and Fc of human IgG) STSCREEQGEFYDHLLRDCISCASICGQHPKQCAAFCENKL[omitted - human IgG1 Fc with changes] | – | – | 2.62 | 7.02
TACI-9-15Fc3 fusion protein (Fc fusion, Full-length chain) STSCREEQGEFYDHLLRDCISCASICGQHPKQCAAFCE[omitted - human IgG1 Fc with changes] | – | – | 1.07 | 9.07
TACI-9-15Fc4 fusion protein (Fc fusion, Full-length chain) [omitted - human IgG1 Fc]GGSSTSCREEQGEFYDHLLRDCISCASICGQHPKQCAAFCENK | – | – | 1.23 | 20.1
